Measured values reported in PubChem BioAssay AID504332 (National Center for Advancing Translational Sciences (NCATS), 2011).
Among all 350,000 compounds or so, about 31,000 (8.9%) were called active. Inconclusive means that the source gave no clear call. Such entries were picked first, then a sample of the others. Calls come from the whole dose curve; as a rule, active = well fitted inhibition curve with a large enough effect; inconclusive = small, poorly fitted or top-dose-only effect; inactive = no such curve, though single readings can be large or run the other way. A potency beside an inconclusive call is a rough fit, not a confirmed value.

What follows are compounds tested against Histone-lysine N-methyltransferase EHMT2 (Homo sapiens) (UniProt Q96KQ7) (assay: qHTS Assay for Inhibitors of Histone Lysine Methyltransferase G9a). Details: G9a H3K9 monomethylation, AlphaScreen, 2 h; activity, negative = inhibition: at 59 µM (top of the series) unless noted.
Procedure, shortened: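 Methyltransferase reactions run at room temperature for 2 h (20 nM enzyme, 500 nM biotin-H3K9 peptide, 20 uM SAM) after a 15 min compound preincubation; product detected by AlphaScreen beads and anti-H3K9me1 antibody.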
% is set by controls: 0 for no effect and ±100 for the full control effect; potency is the fitted concentration of half-maximal effect; tags give direction and shape of the fitted curve.
Note: nearly all actives have a fitted effect of over 75% in size.

Sequence of UniProt Q96KQ7 (Q96KQ7 whole entry, looked up): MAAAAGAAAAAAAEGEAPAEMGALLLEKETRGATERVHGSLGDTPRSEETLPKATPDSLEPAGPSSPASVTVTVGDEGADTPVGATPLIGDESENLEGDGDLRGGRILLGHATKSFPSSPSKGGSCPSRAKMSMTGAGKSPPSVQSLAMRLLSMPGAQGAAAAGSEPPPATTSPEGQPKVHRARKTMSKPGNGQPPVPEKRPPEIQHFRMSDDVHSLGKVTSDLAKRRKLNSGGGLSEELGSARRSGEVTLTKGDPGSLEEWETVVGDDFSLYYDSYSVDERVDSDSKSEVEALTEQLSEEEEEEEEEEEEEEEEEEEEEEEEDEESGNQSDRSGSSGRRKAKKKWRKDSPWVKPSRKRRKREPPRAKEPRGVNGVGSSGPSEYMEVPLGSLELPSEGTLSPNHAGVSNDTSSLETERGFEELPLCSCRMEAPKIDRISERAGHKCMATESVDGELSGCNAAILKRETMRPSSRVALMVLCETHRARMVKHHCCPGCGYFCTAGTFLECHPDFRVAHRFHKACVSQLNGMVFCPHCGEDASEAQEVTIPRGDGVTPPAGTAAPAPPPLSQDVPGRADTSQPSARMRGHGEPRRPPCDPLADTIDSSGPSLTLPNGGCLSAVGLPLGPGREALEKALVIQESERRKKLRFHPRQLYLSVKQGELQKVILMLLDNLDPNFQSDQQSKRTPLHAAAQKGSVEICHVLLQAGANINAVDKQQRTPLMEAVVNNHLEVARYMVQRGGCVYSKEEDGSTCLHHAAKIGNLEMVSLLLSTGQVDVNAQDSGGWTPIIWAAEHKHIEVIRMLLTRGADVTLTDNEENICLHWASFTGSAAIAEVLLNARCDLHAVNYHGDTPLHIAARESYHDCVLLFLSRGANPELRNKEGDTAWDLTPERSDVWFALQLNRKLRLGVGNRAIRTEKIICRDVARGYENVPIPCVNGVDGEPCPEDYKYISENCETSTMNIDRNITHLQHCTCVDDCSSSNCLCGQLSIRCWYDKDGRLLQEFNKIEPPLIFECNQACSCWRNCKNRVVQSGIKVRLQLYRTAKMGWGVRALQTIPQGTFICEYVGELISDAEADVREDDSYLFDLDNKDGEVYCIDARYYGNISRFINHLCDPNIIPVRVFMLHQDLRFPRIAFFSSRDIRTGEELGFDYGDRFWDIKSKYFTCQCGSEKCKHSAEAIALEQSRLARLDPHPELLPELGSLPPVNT

Row | Compound | Potency | activity, negative = inhibition
1 | CCN1C(=O)/C(=C\c2ccncc2)SC1=Nc1ccc(C)c(C)c1 | inconclusive: 15.8 µM [inhibitor, partial curve, poor fit] | –
2 | Cc1ccc(-c2nn3c(C)nnc3s2)cc1NC(=O)C(C)C | inconclusive: 11.2 µM [inhibitor, partial curve, poor fit] | –
3 | COc1ccccc1NC(=O)CN1C(=O)C(c2ccc(F)cc2)=NC12CCCCC2 | inactive | –
4 | O=[N+]([O-])c1cc2c(cc1/C=N/n1cnnc1)OCO2 | inconclusive: 39.8 µM [inhibitor, partial curve, poor fit] | –
5 | C=CCNC(=O)N1CCc2[nH]c3ccc(F)cc3c2C1 | inactive | –
6 | Clc1ccc(CSc2nnc(/C=C/c3ccccc3)o2)c(Cl)c1 | inactive | –
7 | COc1cc(/C=C/C(=O)C2C(=O)C=C(C)OC2=O)cc(OC)c1O (stereo unspecified) | active: 50.1 µM | –
8 | Cc1cc(Cl)ccc1C(=O)C1CCCN(C(=O)c2ccc3ncccc3c2)C1 (stereo unspecified) | inactive | –
9 | COc1cccc(C(=O)/C(C#N)=N/Nc2cccc(-c3ccnc(C)n3)c2)c1 | active: 50.1 µM | –
10 | CCCCN(CCCC)S(=O)(=O)c1ccc(NS(=O)(=O)c2ccc(NC(C)=O)cc2)cc1 | inconclusive: 11.2 µM [inhibitor, partial curve, poor fit] | –
11 | CCOc1ccc2[nH]c(=O)c(C(c3nnnn3Cc3ccco3)N3CCC(C)CC3)cc2c1 (stereo unspecified) | inconclusive: 20 µM [inhibitor, single point] | –
12 | O=C(NCCCN1CCCCCC1)c1ccc2c(Cl)c3c(nc2c1)CCCC3 | inconclusive: 56.2 µM [inhibitor, partial curve, poor fit] | –
13 | CC(=O)c1ccc(NS(=O)(=O)c2cc3c(cc2C)N(C)CCO3)cc1 | inconclusive: 79.4 µM [inhibitor, single point] | –
14 | CCCCc1ccc(NS(=O)(=O)c2cc3c4c(c2)CC(=O)N4CCC3)cc1 | inactive | –
15 | COc1ccccc1C(O)c1nccn1C (stereo unspecified) | inconclusive: 20 µM [inhibitor, single point] | –
16 | COc1cccc(N2CCN(C(=O)c3cnn(-c4ccccc4Cl)c3C3CCN(C(=O)OC(C)(C)C)CC3)CC2)c1 | inconclusive: 11.2 µM [inhibitor, partial curve] | –
17 | O=C(CCCOc1ccccc1)Nc1ccccc1C(F)(F)F | inactive | –
18 | CC(=O)N1CCC(N(C(=O)Nc2ccc(C)c(C)c2)C2CCCC2)CC1 | inconclusive: 89.1 µM [inhibitor, single point] | –
19 | CCOCCCNC(=O)c1ccc2c(=O)n(CCc3ccccc3)c(=O)[nH]c2c1 | inactive | –
20 | Cc1ccc(C)c(NC(=S)NCCc2c[nH]c3ccccc23)c1 | inconclusive: 50.1 µM [inhibitor, partial curve] | –
21 | CC1C(=O)CCN(C(C)C)C1C (stereo unspecified) | inconclusive: 56.2 µM [inhibitor, partial curve, poor fit] | –
22 | COC(=O)c1ccccc1N1C(=O)[C@@H]2C(c3ccc(F)cc3)=NO[C@@H]2C1=O | inactive | –
23 | N/C(=N\O)c1ccc(NC(=O)c2ccc(Br)o2)cc1 | – | inactive: -30.7% [at 12.7 µM]
24 | Cc1cc(C)n(C2CC(=O)N(c3ccc(Cl)c(Cl)c3)C2=O)n1 (stereo unspecified) | inconclusive: 89.1 µM [inhibitor, partial curve, poor fit] | –

Row | Compound | Potency | activity, negative = inhibition
25 | CCOc1cc(/C=C/c2ccc3cccc([N+](=O)[O-])c3n2)ccc1OCC(=O)N(C)C | active: 35.5 µM | –
26 | CCOc1cc(S(=O)(=O)n2ccnc2)ccc1Br | inconclusive: 89.1 µM [inhibitor, partial curve, poor fit] | –
27 | O=[N+]([O-])c1ccc(-c2csc(N3CCCCCC3)n2)cc1 | inconclusive: 0.447 µM [inhibitor, partial curve, poor fit] | –
28 | O=C(CCCN1CCOC(c2ccccc2)C1)c1ccc(F)cc1 (stereo unspecified) | inactive | –
29 | O=C1NC(c2ccccc2Br)=N/C1=C\c1ccco1 | active: 44.7 µM | –
30 | CS(=O)(=O)c1ncc(Cl)c(C(=O)Nc2ccc3ccccc3c2)n1 | active: 10 µM | –
31 | COc1cccc(CNc2ccc3[nH]c(=O)[nH]c3c2)c1OCc1ccccc1F | active: 44.7 µM | –
32 | C/C(=N\NC(=O)c1cc(-c2cccs2)nc2ccccc12)c1ccccn1 | inactive | –
33 | O=C(NC(=S)Nn1cnc2c(cnn2-c2ccccc2)c1=O)c1ccccc1 | inconclusive: 25.1 µM [inhibitor, single point] | –
34 | CC(=O)Nc1ccc(S(=O)(=O)Nc2nnc(CC(C)(C)C)s2)cc1 | inconclusive: 10 µM [inhibitor, full curve] | –
35 | O=C(Nc1ccc(C(=O)O)cc1)/C(=C\c1cccc([N+](=O)[O-])c1)NC(=O)c1ccc(Br)o1 | inactive | –
36 | CCCN(C(=O)Cn1nc(C)c([N+](=O)[O-])c1C)c1c(N)n(Cc2ccccc2)c(=O)[nH]c1=O | active: 44.7 µM | –
37 | CCn1c(Cc2ccccc2)n[nH]c1=S | – | inconclusive: -92.2% [inhibitor]
38 | Cc1ccc(S(=O)(=O)c2nc(-c3ccccc3F)oc2N2CC(C)OC(C)C2)cc1 (stereo unspecified) | active: 39.8 µM | –
39 | OCCN(CC(O)Cn1ccc2ccccc21)CC(O)Cn1ccc2ccccc21 (stereo unspecified) | inconclusive: 89.1 µM [inhibitor, single point] | –
40 | Cc1ccc(NC(=O)CN(C)Cc2cc(=O)n3ccsc3n2)cc1 | – | inconclusive: -72.1% [inhibitor]
41 | CCC(=O)N1CCc2cc(S(=O)(=O)NC(CC(C)C)C(=O)Nc3cccc(C)c3C)ccc21 (stereo unspecified) | inactive | –
42 | Cc1cc(C)n2nc(SCc3cc(=O)oc4cc(O)ccc34)nc2n1 | inconclusive: 3.16 µM [inhibitor, single point] | –
43 | CC(=O)/C=C(\C)Nc1ccc(-c2cnc(-c3ccccc3)o2)cc1 | inconclusive: 39.8 µM [inhibitor, partial curve, poor fit] | –
44 | Cc1ccc(-c2cc(-c3ccccc3)c(C#N)c(N)n2)o1 | active: 2.82 µM | –
45 | O=C(CCC1N=C2c3ccccc3N=C(SCc3ccc(Cl)cc3)N2C1=O)NCc1cccs1 (stereo unspecified) | inactive | –
46 | Cn1c(SCC(=O)Nc2nccs2)nnc1-c1cccnc1 | inactive | –
47 | COc1ccc(OCC(O)Cn2c(=N)n(CCN3CCCCC3)c3ccccc32)cc1 (stereo unspecified) | inconclusive: 79.4 µM [inhibitor, single point] | –
48 | Nc1nc(CN2CCN(C(c3ccccc3)c3ccccc3)CC2)nc(Nc2ccccc2)n1 | active: 44.7 µM | –

Row | Compound | Potency | activity, negative = inhibition
49 | Cc1ccc(NS(=O)(=O)c2ccc3oc(=O)c4ncn(C)c4c3c2)cc1C | inactive | –
50 | O=C(NCC1CCCO1)c1ccc(Cn2c(=S)[nH]c3ccccc3c2=O)cc1 (stereo unspecified) | inconclusive: 39.8 µM [inhibitor, single point] | –
51 | CCOC(=O)c1cnc2c(C)cc(C)cc2c1Nc1ccc(S(=O)(=O)Nc2ncccn2)cc1 | inconclusive: 8.91 µM [inhibitor, full curve, poor fit] | –
52 | CCCCN(CCCC)S(=O)(=O)c1ccc(NC(=O)CN2CCOCC2)cc1 | inconclusive: 89.1 µM [inhibitor, single point] | –
53 | C=CCNC(=S)N1CCN(CCN=CC2=C(O)CC(c3cccs3)CC2=O)CC1 (stereo unspecified) | inactive | –
54 | Cc1oc(C(C)(C)C)cc1C(=O)NCC(=O)NCC(=O)O | inconclusive: 79.4 µM [inhibitor, single point] | –
55 | N#Cc1ccccc1-c1ccc2ncnc(NCCN3CCOCC3)c2c1 | – | inactive: -32.4% [at 0.501 µM]
56 | CSc1nnc(C2CCN(CC(=O)Nc3ccccc3N3CCOCC3)CC2)n1C | inactive | –
57 | CC(C)(C)OC(=O)N1CC=C2C(C#N)=C(N)C(C#N)(C#N)[C@H](c3cccnc3)[C@H]2C1 | inconclusive: 3.16 µM [inhibitor, partial curve, poor fit] | –
58 | CC1(OC(=O)CCc2ccccc2)C(=O)C=C2C=C(c3ccc(C#N)cc3)N(c3ccccc3)C=C2C1=O (stereo unspecified) | – | inactive: -43.8% [at 12.7 µM]
59 | CCOC(=O)c1[nH]c2ccc(Br)cc2c1NC(=O)CCN1CCC(C)CC1 | inactive | –
60 | CCCn1c(=O)c(C(=O)NCc2ccco2)c(O)c2ccccc21 | inconclusive: 31.6 µM [inhibitor, single point] | –
61 | Cc1ccc(/C=N/NC(=O)C(C)Oc2ccccc2[N+](=O)[O-])s1 (stereo unspecified) | inconclusive: 0.501 µM [inhibitor, partial curve, poor fit] | –
62 | CN(CC(=O)Nc1ccccc1Cl)C(=O)c1ccc(N2CCCCCC2)c([N+](=O)[O-])c1 | inconclusive: 5.62 µM [inhibitor, single point] | –
63 | O=C(c1ccco1)N1CCn2cccc2C1c1ccccc1 (stereo unspecified) | inconclusive: 25.1 µM [inhibitor, single point] | –
64 | Cc1cc(C(=O)OCC(=O)c2cccc([N+](=O)[O-])c2)c2cccc(C)c2n1 | inconclusive: 15.8 µM [inhibitor, partial curve, poor fit] | –
65 | S=c1[nH]nc(Cc2cccc3ccccc23)o1 | active: 2.24 µM | –
66 | O=[N+]([O-])c1ccc(OCCCCN2CCCCC2)cc1 | inconclusive: 50.1 µM [inhibitor, partial curve, poor fit] | –
67 | CCOC(=O)C1=C(c2ccccc2)NC(=O)NC1c1ccc(N(C)C)cc1 (stereo unspecified) | inconclusive: 39.8 µM [inhibitor, single point] | –
68 | Nc1nc(NCC2CCCO2)nc(Nc2cccc(Cl)c2)c1[N+](=O)[O-] (stereo unspecified) | inactive | –
69 | Cc1ccc2sc(N(CCCN(C)C)C(=O)c3ccc(Br)s3)nc2c1C | active: 35.5 µM | –
70 | Cc1ccc(-c2c[n+](CC(=O)c3ccc(Br)cc3)c3n2CCCCC3)cc1 | active: 44.7 µM | –
71 | Cc1cc(C)nc(/N=C(\N)Nc2ccc(S(N)(=O)=O)cc2)n1 | inconclusive: 0.251 µM [inhibitor, partial curve, poor fit] | –
